Experimental data published in PubChem BioAssay AID743279 (National Center for Advancing Translational Sciences (NCATS), 2014).
Screen size: about 360,000 compounds; about 17,000 (4.7%) were called active. The inconclusive results got no clear call from the source; some entries with a clear call stand among them for comparison. No stated cut-off is given here; in the data, active means activity change below about -50%; inconclusive means mostly about -30% to -49%; inactive means weaker than that.

Assay: qHTS for Inhibitors of Inflammasome Signaling: IL-1-beta AlphaLISA Primary Screen
Conditions: THP-1 LPS/ATP IL-1B secretion, 16 h; at 57.5 µM, active compounds read low
Procedure, shortened: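 Secreted IL-1B measured by AlphaLISA bead assay after 16 h compound exposure of THP-1 cells; compounds (final up to 57.5 uM) added 1 h before LPS (250 ng/mL) and ATP (1.25 mM) stimulation; lower signal means less secretion.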
On the % scale 0 is the no-effect control and ±100 the full control effect.

Row | SMILES | activity change
1 | O=C(NCc1ccc(F)cc1)C1CCCN(S(=O)(=O)c2ccc(Br)s2)C1 (configuration not stated) | active: -53.1%
2 | CN(C)S(=O)(=O)c1ccc(NC=O)cc1 | inactive: -3.82%
3 | Oc1cc2c(cc1O)CN(C(=S)NCCc1ccc(Cl)cc1)CCC2 | active: -66.9%
4 | CCCN(CC(=O)Nc1ccccc1C)C(=O)COc1c(Cl)cccc1Cl | inactive: 8.61%
5 | C=CCOc1ccc(C(=O)c2ccccc2)c(OCC(=O)NC2(C#N)CCCC2)c1 | active: -60.3%
6 | Nc1c(C(=O)N2CCCCC2)sc(=S)n1-c1ccccc1 | inactive: -22%
7 | O=C(Nc1ccccn1)C1CCN(S(=O)(=O)c2cccs2)CC1 | inactive: -1.37%
8 | Cc1ccc(N2CCN(S(=O)(=O)N(C)C)CC2)cc1Cl | inconclusive: -49.8%
9 | COc1ccc(NC(=O)c2sc3nc(N4CCCC4)c4c(c3c2N)CC(C)(C)OC4)cc1 | inconclusive: -39.8%
10 | COc1ccc(NC(=O)C2CCCN(CCCc3ccccc3)C2)cc1OCC(C)C (configuration not stated) | active: -85.1%
11 | Cc1ccccc1NC(=O)C(C)N1C(=O)c2ccccc2C1=O (configuration not stated) | inconclusive: -48.1%
12 | C[C@@H]1CN([C@H](C)CO)S(=O)(=O)c2ccc(C#Cc3ccccc3F)cc2O[C@H]1CN(C)C(=O)c1ccc2c(c1)OCO2 | active: -73.9%
13 | Cc1cc(C(=O)N2CCCC(N3CCN(c4ccc(F)cc4)CC3)C2)c(C)o1 (configuration not stated) | inactive: -9.81%
14 | CCOc1cc(CNCc2cccs2)cc(Br)c1OCC | inconclusive: -32.8%
15 | COc1ccc(CN2CCC(C(=O)Nc3ccc(Oc4ccccc4)nc3)CC2)cc1F | inactive
16 | O=C(Nc1ccc(Br)cn1)c1coc(=O)c(Br)c1 | inconclusive: -40.6%
17 | Cc1[nH]c2ccccc2c1-c1nc2ccccc2[nH]1 | inconclusive: -41.3%
18 | COc1cccc(OCC(O)CN2CCC(Cc3ccccc3)CC2)c1 (configuration not stated) | inconclusive: -40%
19 | Cc1ccccc1CSc1nnc([C@@H]2CCCN2)o1 | inactive: 22.4%

Row | SMILES | activity change
20 | O=C(Nc1ccc2c(c1)OCO2)c1ccc(CO)cc1 | inconclusive: -34.1%
21 | CCc1cc2c(=O)c(-c3cnn(-c4ccccc4)c3)c(C(F)(F)F)oc2c(CN(C)C)c1O | inactive: 13%
22 | COc1ccc(-c2nnc(SCC#N)o2)cc1 | inconclusive: -33.2%
23 | COc1cc(NC(=O)c2ccc(Br)o2)ccc1NC(=O)C(C)C | inconclusive: -45.3%
24 | Cc1nc(S(=O)(=O)N2CCOCC2)c(C#N)c(C)c1Cl | inconclusive: -39.5%
25 | CC1CC(C)CN(C(=O)c2ccc(-c3ccc([N+](=O)[O-])cc3)o2)C1 (configuration not stated) | inconclusive: -31.2%
26 | O=C(Cn1ncc2c(=O)oc3ccccc3c21)N1CCN(c2ccccn2)CC1 | inactive: 21.5%
27 | C[C@@H]1CN([C@H](C)CO)C(=O)CCCn2cc(nn2)CO[C@H]1CN(C)C(=O)C1CC1 | inactive: 5.62%
28 | COc1ccc(NC(=O)CN(C)C(=O)c2cn(-c3ccccc3)nc2-c2ccc(Cl)cc2)cc1 | active: -59.9%
29 | CC(C)[Si]1(C(C)C)OCC2OC(n3cnc4c(N)ncnc43)C(N)C2O[Si](C(C)C)(C(C)C)O1 (configuration not stated) | inconclusive: -38.2%
30 | CN(C(=O)c1cccc(NC(=O)c2cccs2)c1)c1ccccc1 | inconclusive: -36.3%
31 | Cc1cnc(NC(=O)c2cccc(S(=O)(=O)N3CCOCC3)c2)s1 | inactive: 52.4%
32 | O=C(Cc1c(F)cccc1Cl)Nc1ccc(S(=O)(=O)N2CCCC2)cc1 | inconclusive: -30.5%
33 | O=c1oc2ccccc2c(Nc2cccc(O)c2)c1[N+](=O)[O-] | inconclusive: -31.5%
34 | CN(CC(=O)Nc1cccc(F)c1)CC(=O)Nc1cccc([N+](=O)[O-])c1 | inconclusive: -34.5%
35 | [N-]=[N+]=NC[C@H](Cc1ccccc1)N1CC[C@@H](O)CCC1=O | inactive: 42%
36 | O=C(Cn1sc2ccccc2c1=O)Nc1ccc(Cl)cc1 | active: -105%
37 | O=Nc1c2cc(-c3ccccc3)[nH]nc-2c2ccccc12 | inactive: 27.5%
38 | CCOC(=O)c1ccc(-n2c(-c3ccco3)nc3ccccc3c2=O)cc1 | inactive: 10.2%

Row | SMILES | activity change
39 | COc1ccc(-c2cc(C(=O)N3CC4(C)CC3CC(C)(C)C4)no2)cc1 (configuration not stated) | active: -53.4%
40 | C[C@@H](C(=O)OCn1nnc2ccccc2c1=O)N1C(=O)C2CCCCC2C1=O (some centres not stated) | inactive: -4.76%
41 | OC[C@@H]1CN(Cc2cccc3ccccc23)C[C@H](n2cnc3c(NCc4ccco4)ncnc32)O1 | inconclusive: -31%
42 | Cc1cccc(C)c1N1CCN(S(=O)(=O)N2CCOCC2)CC1 | inactive: 0%
43 | N#Cc1cc(-c2ccccc2)[nH]c1-c1nccc2ccccc12 | inactive: -18.1%
44 | O=C(NCc1ccccc1)C1C(=O)Nc2ccccc2C(=O)N1c1ccc2c(c1)OCCO2 (configuration not stated) | inactive: -18.1%
45 | Cc1nn2c(NCCCN3CCOCC3)c3c(nc2c1-c1ccccc1)CCC3 | inconclusive: -38%
46 | Cc1ccc(NC(=O)COC(=O)c2cccnc2Cl)cc1S(=O)(=O)N1CCOCC1 | inactive: 6.63%
47 | Cc1nc(N2CCN(C(=O)c3ccco3)CC2)c2c3c(sc2n1)CCC3 | inconclusive: -34.8%
48 | O=C(Nc1ccc(SC(F)F)cc1)C1=CC=CN2CCS(=O)(=O)N=C12 | inconclusive: -43.9%
49 | C=CCN(CC=C)C(=S)NC(=O)c1ccc(-c2ccccc2)cc1 | inactive: 22.3%
50 | COc1cccc(/C=N/NC(=O)N/N=C/c2cccc(OC)c2O)c1O | active: -96.8%
51 | CC(C)N(C)c1ncnc2c1ncn2[C@H]1CN(Cc2ccco2)C[C@@H](CO)O1 | inactive: 0.508%
52 | N#Cc1nc(-c2ccc(OCc3ccccc3)cc2)oc1NCc1cccnc1 | inconclusive: -31.5%
53 | CCCCCC(=O)Nc1nc2ccccc2[nH]1 | inactive: 12.8%
54 | COc1cccc(OC)c1OCCCOc1cccc2cccnc12 | inconclusive: -39%
55 | O=C(c1cccs1)c1c[nH]cc1-c1ccccc1 | active: -56.8%
56 | C/C=C1\COC(C(=O)NCc2ccccc2)(C(F)(F)F)C=C1C=C1CCCCC1 (configuration not stated) | inactive: -3.24%
57 | COC(=O)C1=C(C)NC(C)=C(C(=O)OCC2CCCO2)C1c1cccc(Br)c1 (configuration not stated) | inconclusive: -32.4%
